Laboratory results: the supplement of paper PMC11417369
The other results are listed elsewhere or left out.

tested on: PfHDP1 homeodomain (GST-tagged); assay: gcPBM binding intensity (ln(normalized median fluorescence intensity)); higher = stronger DNA binding
How it was run: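 Binding intensity values are the highest Masliner-normalised natural-log median intensity among replicate spots of either probe orientation. The binding step lasted 1 h in 1× PBS with 1% milk, 0.2 mg/ml BSA, 0.5% salmon testes DNA and 0.03% Triton X-100, using GST-tagged P. falciparum DNA-binding domains expressed in E. coli on an Agilent 4 × 180k array of primer-extended double-stranded 36-bp intergenic genomic probes plus negative controls. Alexa488 anti-GST antibody and a 488 nm scan detected bound protein.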

| Sequence | gcPBM binding intensity (ln) |
| --- | --- |
| ATATATGGGTAGTATACACACTGTATATTTAGGAAT [CACACA_site7357] | 6.75 |
| GTATGAAAAAAATATGCATGCTAAATAATAAATGTT [TGCATGCA_site352] | 6.52 |
| AATATTTTAAAAAAATGTACTTTTAACCCTTATTGG [XGTACX_site3490] | 5.87 |
| TTTTTTAAAATATAAAATATGTACAAATATGTTGAA [GTGCAC_negctrl_site379] | 6.67 |
| TATAAAATATAAATTTGTACATATAAAATATTTTAT [XGTACX_site7462] | 6.37 |
| TAATAGTTATAAAATACACACCAGGCATGATAAATG [CACACA_site4335] | 6.22 |
| ATATCGCACGTTTGAAGTACATAAAAACGATTAATA [XGTACX_site7684] | 6.47 |
| CACCAATTCATATGCACACACATCTGCATATTATAG [CACACA_site6925] | 10.3 |
| TTATATAAATATAAGGTGCTGGGGTTTATTACATAT [GTGCAC_site9909] | 6.93 |
| CATATTATTTATATTTGTACACAGCGATATGAAATA [XGTACX_site7717] | 6.69 |
| CTTACATAAAATATCACACACATAAAAAAACAATAT [CACACA_site1901] | 7.12 |
| ATTTCGTAATTTATATCACACACATATATATATAAT [CACACA_site9021] | 6.84 |
| ATCATTTTTATAAATTGTACAAATATTTTTTATACA [XGTACX_site7551] | 6.74 |
| TTTTGAAGTAATACATGTACTTAAATTACTAAAAAA [XGTACX_site1955] | 6.04 |
| ACTTTGCGTTAAAAGAGTACATAATATTTTTTTTTT [XGTACX_site7533] | 6.14 |
| AAACTAACTCTAACATGTACATATATATATATATAT [XGTACX_site6949] | 9.35 |
| GCTTATTTTAATTCTTGTACTTATTTATATACAAAT [XGTACX_site2099] | 7.01 |
| TTGAAAATTCTTAAGGCACACACATATATAATATAT [CACACA_site8088] | 6.75 |
| TAATGGTGTTCATGTGGTACACTTTATAAATTGGCA [XGTACX_site729] | 6.41 |
| TATATATATATGTGTACACAAAAAATATTATATTAT [CACACA_site5505] | 8.81 |
| TTTTTAATCCTTTGCGCATGTAAAATTATATATTTT [TGCATGCA_site306] | 7.54 |
| ACATAATTATTATGCACACATATTTTTATGTATTTA [CACACA_site698] | 10.2 |
| ATTCTATTTTTAAGTACACACATATATATATATATA [CACACA_site3658] | 9.43 |

| Sequence | gcPBM binding intensity (ln) |
| --- | --- |
| ATACTTTATTAATATTGTACAAAATAAGAAAAAAAA [XGTACX_site310] | 6.41 |
| CACAACAGGGTTGAGGTGCGTAAAAATAGTAGAATA [GTGCAC_site9523] | 6.55 |
| ACATAAAAATTATGCACACTTAATAAAGCGAAATGT [CACACA_site3183] | 10.3 |
| AAAACAAAAGAATTCACACATATATATATATATATA [CACACA_site4777] | 9.44 |
| CAAGGAACCAGACACACACACATAAATGTATATATA [CACACA_site752] | 6.56 |
| TGATTATTATAATTTAGTACATAATATTTTATATAA [XGTACX_site6125] | 6.1 |
| ATATATGGAAAGAGTAGTACTATTATAGGGGTGTTA [XGTACX_site6785] | 6.91 |
| TTAAACGTACATAATACACACACATGTAGACATATA [CACACA_site8635] | 6.8 |
| AAAATTAACGAGTGCACACATATTTAGATAAAATAC [CACACA_site2936] | 11.3 |
| AAAATTAAACATACATCACACATGCATTATATTATG [CACACA_site5517] | 6.63 |
| TCATATAAGTTTAGTAGTACTAAAAGTTAGAGAGAA [XGTACX_site3430] | 6.78 |
| AAATAAGAGCGTAGCACACACGCATTTTATAAATGG [CACACA_site4571] | 6.37 |
| AAATCAAATTTTTAGAGTACTTAAGTTTTCTATATA [XGTACX_site7827] | 6.11 |
| ATCACAAAAAAGTTCATACACACAACCTATTTATAT [CACACA_site2888] | 6.59 |
| TCCCCATATGTTTTGTGTACATATATATTTTTTTGT [XGTACX_site75] | 7.27 |
| TAATATATTAATATATGTACATATTTATATATCTAC [XGTACX_site7117] | 6.47 |
| AAAAAACTTCACATATGTACTTAAAAAAAATTAAAA [XGTACX_site2368] | 6.18 |
| GAACATTACGTAAATAAATAAATAAAAATAAATACA [XGTACX_negctrl_site25] | 6.46 |
| ATAAAGTCTATATTATGTACATATAATATAAATATT [XGTACX_site6703] | 6.22 |
| CAAAAAAAAATCTGTAGTACTTATTAATATTGCTGT [XGTACX_site4767] | 6.17 |
| TATTGTCTTGTATATGCATGTAGACCAAATATGTAA [TGCATGCA_site9] | 6.42 |
| GGAATAACCAGACACACACACACATATAAATATGTA [CACACA_site7632] | 6.59 |
| TAAATACAAGAACTGACACACATACATACTACATTT [CACACA_site5561] | 6.61 |

| Sequence | gcPBM binding intensity (ln) |
| --- | --- |
| GGAAAAAAATAAAATAAGTATTTTACATACATATTG [TGCATGCA_negctrl_site10] | 5.87 |
| ATATCATTTTATTTGTGTACTTAAAAAGTTGCAATG [XGTACX_site4099] | 9.18 |
| AAAACTTTTTTAACAGAAAAATAGGGATACAATATA [CACACA_negctrl_site1708] | 6.83 |
| ATAACATTCAAAAAATGTACAAACATATGAATAAAT [XGTACX_site7013] | 6.52 |
| ATTTATTTTAAATAAGTGCAAAATGGTTATAAATAA | 8.98 |
| ATGTACTATAGGCACACACACTCACATATATATATA [CACACA_site5745] | 9.01 |
| AAAATTTCAATAAATACACACATATAAATATAGATT [CACACA_site6893] | 6.37 |
| ATAAATATTTTGTAAGCATGCTTTTAAAAAAAGAAA [TGCATGCA_site572] | 6.96 |
| AAATAGTTGTTAAAGGTGCACAATATGGATATAAGA | 9.86 |
| TGAAAATATATAACGCGTACAAAAAGGAAATACAAT [XGTACX_site3534] | 7.03 |
| TTTTTTTTTTTTTTTGCATGTTGAAAATAAAATTAT [TGCATGCA_site86] | 6.48 |
| TGTTCAGTATTGCACACACACAACAAAATAAAAAAA [CACACA_site6314] | 10.4 |
| ATATATATATATATATGTACTTAATGTTATTATATA [XGTACX_site4508] | 9.59 |
| GAAATGTGATAATATACACACACGCATATATATATA [CACACA_site4332] | 8.82 |
| ATTATATATATATTATGTACATATATTGAAGTGGAT [XGTACX_site5916] | 6.99 |
| ACGGATTAAAAAATGTGTACGCACAAAAAAAAAAAT [XGTACX_site8259] | 7.14 |
| TACGAAATCATATGTACACACACATATATATATATA [CACACA_site5216] | 9.26 |
| TAAAATTAAACAAAAAAAAAGAAAAAAAAAAAAAAG [CACACA_negctrl_site1098] | 5.92 |
| CTCCATATTAGACACACACACAAATGAAAAAAATAT [CACACA_site7420] | 6.99 |
| TGAACATACATCAAAAGTACAAACTCGCATGTTATA [XGTACX_site3320] | 6.35 |
| TACCTATACAGACACACACACACACGCCCACAAAAA [CACACA_site6375] | 6.97 |
| TTTTTATATTTATATAAATAAAAAAATAACAAAATG [XGTACX_negctrl_site231] | 6.69 |
| AATATTCTATATGATACATGCATGATGGAATAAAAA [TGCATGCA_site980] | 7.29 |

| Sequence | gcPBM binding intensity (ln) |
| --- | --- |
| AATGTAGACACATATGTACACACATATATATGTATA [CACACA_site9014] | 6.68 |
| TTTTGGTATACGTAATTATATAATATGTTAATCAAT [CACACA_negctrl_site645] | 6.44 |
| CCGCCATTGTACCATCCACACACATATATATATGTA [CACACA_site8866] | 7.38 |
| TATACATATATATATATATATAGATATATTCACGTG [XGTACX_negctrl_site265] | 7 |
| TTTTTAAAAAGTAACACACACTCTTATATATAATGA [CACACA_site3618] | 6.62 |
| AAAAAAAACAGACACACACACATAAATATAAATAAA [CACACA_site6214] | 6.62 |
| AAAATAATAATAAATGCATGTGTTGTTTACTAAGAA [TGCATGCA_site528] | 7.08 |
| GAATAATATGGACATACACACATATACATACCTATA [CACACA_site7075] | 6.91 |
| AAATATTATTGACGATGTACTTCTATTCATAAGTAT [XGTACX_site3964] | 5.94 |
| CTTTTTAATGAATACACACACACACCGATATATATA [CACACA_site5296] | 7.08 |
| TAAAACTTATACAAATGTACAAATATATATATATAT [XGTACX_site4661] | 9.19 |
| AAAATTTTTTTTGGCGCACACTAATAATAAAATATA [CACACA_site470] | 6.82 |
| TACTATTATTATTGCACACTTATTATCCCTCGGATA [CACACA_site162] | 10.3 |
| AATATATATTAATACACACACACATATATATATATA [CACACA_site3786] | 9.22 |
| TGATCATAGAAACACACACACAAAAAAAAAAAAAAA [CACACA_site4008] | 6.33 |
| AGACGATAAATCATTCATTCATTTACCATCCAAAAA [CACACA_negctrl_site802] | 5.75 |
| TTTTAATTAGTACAAACACACATATACAGACAAAAA [CACACA_site2563] | 7.13 |
| TAATATAGAAAATGCATACACACTTTATATATATAT [CACACA_site911] | 8.61 |
| AAAAAAAAAAGAAAAAGTACATACATACATATATAT [XGTACX_site6405] | 6.28 |
| TTATTATTAGAAAAAAGTACACATATAAAATGTTAC [XGTACX_site6426] | 6.12 |
